Source: article PMC12820563, “FoxP3 forms a head-to-head dimer in vivo and stabilizes its multimerization on adjacent microsatellites”
Some of the results follow.

target: T1, MBP-FoxP1dN (Mus musculus, UniProt P58462 326-579); assay: PD-seq (MBP pull-down with sequencing); 20 mM Tris-HCl pH 7.5, 100 mM NaCl, 1.5 mM MgCl2, 0.4 uM protein, 0.1 uM dsDNA library, 30 min, room temperature, amylose pull-down; high values mean tight binding; conditions: protein: recombinant; tags: His6-MBP; chain copies: 2; dsDNA, one strand shown
T1 sequence: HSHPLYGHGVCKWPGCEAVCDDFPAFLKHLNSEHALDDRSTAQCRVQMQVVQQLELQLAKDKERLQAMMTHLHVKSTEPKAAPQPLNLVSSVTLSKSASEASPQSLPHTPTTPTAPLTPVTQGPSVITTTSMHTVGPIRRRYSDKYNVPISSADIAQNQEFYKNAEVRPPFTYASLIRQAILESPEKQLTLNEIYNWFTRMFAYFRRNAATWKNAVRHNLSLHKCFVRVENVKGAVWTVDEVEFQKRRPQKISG
Procedure, shortened: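 Protein and DNA were mixed at 0.4 µM and 0.1 µM and held for 30 min at room temperature in Tris pH 7.5 buffer with NaCl and MgCl2; the protein was a His6-MBP-tagged, N-terminally truncated mouse FoxP3 or FoxP1 fragment from E. coli, and the DNA a Klenow-filled double-stranded degenerate library. Amylose resin captured the complexes, which were washed three times. Binding is read as reads-per-million enrichment of pull-down versus input after Illumina sequencing, with replicates pooled.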

Row | Sequence | binding signal
1 | GATGATTGTTCTCCCAGCTGATGAATTATCCCGTTCGAGTAAACAAATTTTCCTAATCTTTCTGTTCAAGCGCCATCTAC | 0.988 RPM ratio (pull-down/input)
2 | GATGATTGTTCTCCCAGCTGATGAATTTGCCTCATCGAGTAAACAAATTTTCCTAATCTTTCTGTTCAAGCGCCATCTAC | 1 RPM ratio (pull-down/input)
3 | GATGATTGTTCTCCCAGCTGATGAATTGGATATTTCGAGTAAACAAATTTTCCTAATCTTTCTGTTCAAGCGCCATCTAC | 0.943 RPM ratio (pull-down/input)
4 | GATGATTGTTCTCCCAGCTGATGAATTCATTCGTTCGAGTAAACAAATTTTCCTAATCTTTCTGTTCAAGCGCCATCTAC | 0.904 RPM ratio (pull-down/input)
5 | GATGATTGTTCTCCCAGCTGATGAATTTGACATCTCGAGTAAACAAATTTTCCTAATCTTTCTGTTCAAGCGCCATCTAC | 0.803 RPM ratio (pull-down/input)
6 | GATGATTGTTCTCCCAGCTGATGAATTGGACGTTTCGAGTAAACAAATTTTCCTAATCTTTCTGTTCAAGCGCCATCTAC | 0.862 RPM ratio (pull-down/input)
7 | GATGATTGTTCTCCCAGCTGATGAATTAATTATGTCGAGTAAACAAATTTTCCTAATCTTTCTGTTCAAGCGCCATCTAC | 1.07 RPM ratio (pull-down/input)
8 | GATGATTGTTCTCCCAGCTGATGAATTCCGATGATCGAGTAAACAAATTTTCCTAATCTTTCTGTTCAAGCGCCATCTAC | 0.884 RPM ratio (pull-down/input)
9 | GATGATTGTTCTCCCAGCTGATGAATTCTCGGTCTCGAGTAAACAAATTTTCCTAATCTTTCTGTTCAAGCGCCATCTAC | 0.756 RPM ratio (pull-down/input)
10 | GATGATTGTTCTCCCAGCTGATGAATTGAACGACTCGAGTAAACAAATTTTCCTAATCTTTCTGTTCAAGCGCCATCTAC | 0.624 RPM ratio (pull-down/input)
11 | GATGATTGTTCTCCCAGCTGATGAATTCCTTCACTCGAGTAAACAAATTTTCCTAATCTTTCTGTTCAAGCGCCATCTAC | 0.85 RPM ratio (pull-down/input)
12 | GATGATTGTTCTCCCAGCTGATGAATTGGTAGAATCGAGTAAACAAATTTTCCTAATCTTTCTGTTCAAGCGCCATCTAC | 1.03 RPM ratio (pull-down/input)
13 | GATGATTGTTCTCCCAGCTGATGAATTACTGCTTTCGAGTAAACAAATTTTCCTAATCTTTCTGTTCAAGCGCCATCTAC | 1.45 RPM ratio (pull-down/input)
14 | GATGATTGTTCTCCCAGCTGATGAATTATCATTATCGAGTAAACAAATTTTCCTAATCTTTCTGTTCAAGCGCCATCTAC | 1.23 RPM ratio (pull-down/input)
15 | GATGATTGTTCTCCCAGCTGATGAATTGTCGGGATCGAGTAAACAAATTTTCCTAATCTTTCTGTTCAAGCGCCATCTAC | 0.855 RPM ratio (pull-down/input)
16 | GATGATTGTTCTCCCAGCTGATGAATTATAAGAATCGAGTAAACAAATTTTCCTAATCTTTCTGTTCAAGCGCCATCTAC | 1.07 RPM ratio (pull-down/input)
17 | GATGATTGTTCTCCCAGCTGATGAATTCCGGATTTCGAGTAAACAAATTTTCCTAATCTTTCTGTTCAAGCGCCATCTAC | 0.807 RPM ratio (pull-down/input)
18 | GATGATTGTTCTCCCAGCTGATGAATTGACCCAGTCGAGTAAACAAATTTTCCTAATCTTTCTGTTCAAGCGCCATCTAC | 0.831 RPM ratio (pull-down/input)
19 | GATGATTGTTCTCCCAGCTGATGAATTATCTCCGTCGAGTAAACAAATTTTCCTAATCTTTCTGTTCAAGCGCCATCTAC | 0.918 RPM ratio (pull-down/input)
20 | GATGATTGTTCTCCCAGCTGATGAATTTTCTTCCTCGAGTAAACAAATTTTCCTAATCTTTCTGTTCAAGCGCCATCTAC | 0.86 RPM ratio (pull-down/input)
21 | GATGATTGTTCTCCCAGCTGATGAATTCATCGCTTCGAGTAAACAAATTTTCCTAATCTTTCTGTTCAAGCGCCATCTAC | 0.911 RPM ratio (pull-down/input)

Row | Sequence | binding signal
22 | GATGATTGTTCTCCCAGCTGATGAATTCTTTTTATCGAGTAAACAAATTTTCCTAATCTTTCTGTTCAAGCGCCATCTAC | 1 RPM ratio (pull-down/input)
23 | GATGATTGTTCTCCCAGCTGATGAATTCATTGCTTCGAGTAAACAAATTTTCCTAATCTTTCTGTTCAAGCGCCATCTAC | 0.935 RPM ratio (pull-down/input)
24 | GATGATTGTTCTCCCAGCTGATGAATTTCTAATTTCGAGTAAACAAATTTTCCTAATCTTTCTGTTCAAGCGCCATCTAC | 1.03 RPM ratio (pull-down/input)
25 | GATGATTGTTCTCCCAGCTGATGAATTGTTCAGATCGAGTAAACAAATTTTCCTAATCTTTCTGTTCAAGCGCCATCTAC | 1.12 RPM ratio (pull-down/input)
26 | GATGATTGTTCTCCCAGCTGATGAATTTCAACATTCGAGTAAACAAATTTTCCTAATCTTTCTGTTCAAGCGCCATCTAC | 0.964 RPM ratio (pull-down/input)
27 | GATGATTGTTCTCCCAGCTGATGAATTACCTCAATCGAGTAAACAAATTTTCCTAATCTTTCTGTTCAAGCGCCATCTAC | 1.1 RPM ratio (pull-down/input)
28 | GATGATTGTTCTCCCAGCTGATGAATTCGAAGTGTCGAGTAAACAAATTTTCCTAATCTTTCTGTTCAAGCGCCATCTAC | 0.856 RPM ratio (pull-down/input)
29 | GATGATTGTTCTCCCAGCTGATGAATTTAGCCTGTCGAGTAAACAAATTTTCCTAATCTTTCTGTTCAAGCGCCATCTAC | 0.841 RPM ratio (pull-down/input)
30 | GATGATTGTTCTCCCAGCTGATGAATTCGAGCTGTCGAGTAAACAAATTTTCCTAATCTTTCTGTTCAAGCGCCATCTAC | 0.846 RPM ratio (pull-down/input)
31 | GATGATTGTTCTCCCAGCTGATGAATTGTGCCGTTCGAGTAAACAAATTTTCCTAATCTTTCTGTTCAAGCGCCATCTAC | 0.972 RPM ratio (pull-down/input)
32 | GATGATTGTTCTCCCAGCTGATGAATTGAGGAAGTCGAGTAAACAAATTTTCCTAATCTTTCTGTTCAAGCGCCATCTAC | 0.788 RPM ratio (pull-down/input)
33 | GATGATTGTTCTCCCAGCTGATGAATTGTGAAGATCGAGTAAACAAATTTTCCTAATCTTTCTGTTCAAGCGCCATCTAC | 1.02 RPM ratio (pull-down/input)
34 | GATGATTGTTCTCCCAGCTGATGAATTTGCACTTTCGAGTAAACAAATTTTCCTAATCTTTCTGTTCAAGCGCCATCTAC | 1.12 RPM ratio (pull-down/input)
35 | GATGATTGTTCTCCCAGCTGATGAATTGGAACGCTCGAGTAAACAAATTTTCCTAATCTTTCTGTTCAAGCGCCATCTAC | 0.813 RPM ratio (pull-down/input)
36 | GATGATTGTTCTCCCAGCTGATGAATTATCGATTTCGAGTAAACAAATTTTCCTAATCTTTCTGTTCAAGCGCCATCTAC | 1.02 RPM ratio (pull-down/input)
37 | GATGATTGTTCTCCCAGCTGATGAATTGCGTGACTCGAGTAAACAAATTTTCCTAATCTTTCTGTTCAAGCGCCATCTAC | 1.06 RPM ratio (pull-down/input)
38 | GATGATTGTTCTCCCAGCTGATGAATTCCCTACTTCGAGTAAACAAATTTTCCTAATCTTTCTGTTCAAGCGCCATCTAC | 0.87 RPM ratio (pull-down/input)
39 | GATGATTGTTCTCCCAGCTGATGAATTCTCGGATTCGAGTAAACAAATTTTCCTAATCTTTCTGTTCAAGCGCCATCTAC | 0.902 RPM ratio (pull-down/input)
40 | GATGATTGTTCTCCCAGCTGATGAATTATTAGGTTCGAGTAAACAAATTTTCCTAATCTTTCTGTTCAAGCGCCATCTAC | 0.984 RPM ratio (pull-down/input)
41 | GATGATTGTTCTCCCAGCTGATGAATTGTAACGCTCGAGTAAACAAATTTTCCTAATCTTTCTGTTCAAGCGCCATCTAC | 0.986 RPM ratio (pull-down/input)
42 | GATGATTGTTCTCCCAGCTGATGAATTTTCGGTGTCGAGTAAACAAATTTTCCTAATCTTTCTGTTCAAGCGCCATCTAC | 0.894 RPM ratio (pull-down/input)

Row | Sequence | binding signal
43 | GATGATTGTTCTCCCAGCTGATGAATTTCGGAAATCGAGTAAACAAATTTTCCTAATCTTTCTGTTCAAGCGCCATCTAC | 1.02 RPM ratio (pull-down/input)
44 | GATGATTGTTCTCCCAGCTGATGAATTTTTGGATTCGAGTAAACAAATTTTCCTAATCTTTCTGTTCAAGCGCCATCTAC | 0.948 RPM ratio (pull-down/input)
45 | GATGATTGTTCTCCCAGCTGATGAATTTCACGTTTCGAGTAAACAAATTTTCCTAATCTTTCTGTTCAAGCGCCATCTAC | 0.862 RPM ratio (pull-down/input)
46 | GATGATTGTTCTCCCAGCTGATGAATTGGCGGTATCGAGTAAACAAATTTTCCTAATCTTTCTGTTCAAGCGCCATCTAC | 0.894 RPM ratio (pull-down/input)
47 | GATGATTGTTCTCCCAGCTGATGAATTCCATCGCTCGAGTAAACAAATTTTCCTAATCTTTCTGTTCAAGCGCCATCTAC | 0.823 RPM ratio (pull-down/input)
48 | GATGATTGTTCTCCCAGCTGATGAATTACCGTATTCGAGTAAACAAATTTTCCTAATCTTTCTGTTCAAGCGCCATCTAC | 1.11 RPM ratio (pull-down/input)
49 | GATGATTGTTCTCCCAGCTGATGAATTACCAAAATCGAGTAAACAAATTTTCCTAATCTTTCTGTTCAAGCGCCATCTAC | 1.3 RPM ratio (pull-down/input)
50 | GATGATTGTTCTCCCAGCTGATGAATTTTTTAGTTCGAGTAAACAAATTTTCCTAATCTTTCTGTTCAAGCGCCATCTAC | 1.1 RPM ratio (pull-down/input)
51 | GATGATTGTTCTCCCAGCTGATGAATTAGCGTCATCGAGTAAACAAATTTTCCTAATCTTTCTGTTCAAGCGCCATCTAC | 1.17 RPM ratio (pull-down/input)
52 | GATGATTGTTCTCCCAGCTGATGAATTTGAGGATTCGAGTAAACAAATTTTCCTAATCTTTCTGTTCAAGCGCCATCTAC | 0.846 RPM ratio (pull-down/input)
53 | GATGATTGTTCTCCCAGCTGATGAATTTAGCGTCTCGAGTAAACAAATTTTCCTAATCTTTCTGTTCAAGCGCCATCTAC | 0.926 RPM ratio (pull-down/input)
54 | GATGATTGTTCTCCCAGCTGATGAATTGCTCCCATCGAGTAAACAAATTTTCCTAATCTTTCTGTTCAAGCGCCATCTAC | 1.05 RPM ratio (pull-down/input)
55 | GATGATTGTTCTCCCAGCTGATGAATTAATTCCATCGAGTAAACAAATTTTCCTAATCTTTCTGTTCAAGCGCCATCTAC | 0.978 RPM ratio (pull-down/input)
56 | GATGATTGTTCTCCCAGCTGATGAATTAGGTTCCTCGAGTAAACAAATTTTCCTAATCTTTCTGTTCAAGCGCCATCTAC | 0.845 RPM ratio (pull-down/input)
57 | GATGATTGTTCTCCCAGCTGATGAATTAAAACTGTCGAGTAAACAAATTTTCCTAATCTTTCTGTTCAAGCGCCATCTAC | 0.933 RPM ratio (pull-down/input)
58 | GATGATTGTTCTCCCAGCTGATGAATTAAGATAATCGAGTAAACAAATTTTCCTAATCTTTCTGTTCAAGCGCCATCTAC | 1.34 RPM ratio (pull-down/input)
59 | GATGATTGTTCTCCCAGCTGATGAATTGTGCCAATCGAGTAAACAAATTTTCCTAATCTTTCTGTTCAAGCGCCATCTAC | 1.11 RPM ratio (pull-down/input)
60 | GATGATTGTTCTCCCAGCTGATGAATTAATGTGGTCGAGTAAACAAATTTTCCTAATCTTTCTGTTCAAGCGCCATCTAC | 1.09 RPM ratio (pull-down/input)
61 | GATGATTGTTCTCCCAGCTGATGAATTTAAGTGGTCGAGTAAACAAATTTTCCTAATCTTTCTGTTCAAGCGCCATCTAC | 0.934 RPM ratio (pull-down/input)
62 | GATGATTGTTCTCCCAGCTGATGAATTGGCACCATCGAGTAAACAAATTTTCCTAATCTTTCTGTTCAAGCGCCATCTAC | 0.925 RPM ratio (pull-down/input)
63 | GATGATTGTTCTCCCAGCTGATGAATTGGAATCTTCGAGTAAACAAATTTTCCTAATCTTTCTGTTCAAGCGCCATCTAC | 0.816 RPM ratio (pull-down/input)
